The source of these data is article PMC5739538.

These are yes or no findings as the source states them, for the method shown. In cells and extracts the contact can be indirect. Some binding calls cover weakened binding; strength is not graded here. Sequences can lack the tags named with a protein.

The target in one assay is T1, HIG2-FLAG WT (human) (UniProt Q9Y5L2).
T1 sequence: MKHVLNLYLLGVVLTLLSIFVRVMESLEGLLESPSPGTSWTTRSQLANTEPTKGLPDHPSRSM
The assay is described as follows: co-IP; HeLa cells co-transfected with Myc-ATGL and HIG2-FLAG WT or ∆7–11; immunoprecipitation by anti-FLAG gels, blots with anti-FLAG and anti-Myc; lysis buffer 50 mM Tris-HCl pH 7.4, 150 mM NaCl, 1% Triton X-100, 1 mM DTT, 4 hr at 4°C.

In a further assay the target is T2, HIG2-FLAG ∆7–11 (human) (UniProt Q9Y5L2).
T2 sequence: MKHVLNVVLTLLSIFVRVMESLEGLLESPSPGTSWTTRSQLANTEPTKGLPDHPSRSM
The assay is described as above.

The target of assay [1] is T3, FLAG-ATGL (adipose triglyceride lipase) (not stated (human or mouse cDNA cloned)) (UniProt Q8BJ56).
T3 sequence: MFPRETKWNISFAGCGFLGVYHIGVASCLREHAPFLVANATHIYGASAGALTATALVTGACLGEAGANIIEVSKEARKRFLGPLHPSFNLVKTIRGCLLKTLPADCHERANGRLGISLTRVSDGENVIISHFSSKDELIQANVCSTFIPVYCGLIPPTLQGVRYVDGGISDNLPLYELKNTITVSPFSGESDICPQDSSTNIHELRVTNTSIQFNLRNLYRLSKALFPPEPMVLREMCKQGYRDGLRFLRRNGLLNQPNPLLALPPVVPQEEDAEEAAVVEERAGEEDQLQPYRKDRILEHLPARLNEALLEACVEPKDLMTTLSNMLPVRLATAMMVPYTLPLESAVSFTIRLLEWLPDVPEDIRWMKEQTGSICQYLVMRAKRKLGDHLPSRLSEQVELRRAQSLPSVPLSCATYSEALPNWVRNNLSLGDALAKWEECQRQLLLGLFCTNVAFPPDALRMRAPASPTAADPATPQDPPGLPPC
Put plainly: co-IP; same anti-FLAG immunoprecipitates of FLAG-ATGL from hypoxic HCT116 cells; immunoblotting with anti-HIG2 and anti-FLAG antibodies.

Assay [2] has as its target T4, Myc-ATGLΔPT (not stated (human or mouse cDNA cloned)) (UniProt Q8BJ56).
T4 sequence: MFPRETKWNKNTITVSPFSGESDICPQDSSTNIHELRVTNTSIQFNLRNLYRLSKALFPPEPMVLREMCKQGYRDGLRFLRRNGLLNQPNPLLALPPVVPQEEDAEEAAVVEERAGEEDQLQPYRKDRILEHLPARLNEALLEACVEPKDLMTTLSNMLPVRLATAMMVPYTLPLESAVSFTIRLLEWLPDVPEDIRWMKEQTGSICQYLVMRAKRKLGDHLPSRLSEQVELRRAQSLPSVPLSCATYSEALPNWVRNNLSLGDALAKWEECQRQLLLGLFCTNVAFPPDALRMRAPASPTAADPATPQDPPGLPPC
Put plainly: co-IP; HeLa cells co-transfected with HIG2-FLAG and Myc-ATGL or deletion mutants; immunoprecipitation by anti-Myc gels, blots with anti-FLAG and anti-Myc; lysis buffer 50 mM Tris-HCl pH 7.4, 150 mM NaCl, 1% Triton X-100, 1 mM DTT, 4 hr at 4°C.

In assay [3] the target is T5, Myc-ATGLΔHD (not stated (human or mouse cDNA cloned)) (UniProt Q8BJ56).
T5 sequence: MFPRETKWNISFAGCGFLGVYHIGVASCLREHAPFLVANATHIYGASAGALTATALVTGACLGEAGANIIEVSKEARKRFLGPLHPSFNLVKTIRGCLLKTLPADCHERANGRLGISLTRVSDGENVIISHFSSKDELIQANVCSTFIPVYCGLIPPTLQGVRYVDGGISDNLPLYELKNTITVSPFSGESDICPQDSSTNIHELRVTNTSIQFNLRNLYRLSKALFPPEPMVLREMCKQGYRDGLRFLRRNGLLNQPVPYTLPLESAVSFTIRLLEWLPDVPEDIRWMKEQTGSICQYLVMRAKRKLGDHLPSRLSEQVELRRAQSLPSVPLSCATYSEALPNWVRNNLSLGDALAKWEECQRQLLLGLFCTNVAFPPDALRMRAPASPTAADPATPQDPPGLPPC
The assay is described as above.

For assay [4], the target named is T6, Myc-ATGL (adipose triglyceride lipase), wild type (not stated (human or mouse cDNA cloned)) (UniProt Q8BJ56).
T6 sequence: T3 sequence
Described as above.

B1: Myc-ATGL (adipose triglyceride lipase), wild type (enzyme, UniProt Q8BJ56 1-486)
chain: T3 sequence
In the case of B1, the binding result in the assay with HIG2-FLAG WT (human) was “binds”; with HIG2-FLAG ∆7–11 (human), “no binding”.

B2: HIG2 (hypoxia-inducible gene 2 protein), endogenous (protein, UniProt Q9Y5L2 1-63)
chain: T1 sequence
Turning to B2, the binding result in assay [1] is “binds”.

B3: HIG2-FLAG WT (protein, UniProt Q9Y5L2 1-63)
chain: T1 sequence
Regarding B3, the binding entry in assay [2] is given as “no binding”; in assay [3], “binds”; in assay [4], “binds”.
